Source: the supplement of paper PMC11876631
± gives the standard deviation of the averaged measurements. Laboratory Escherichia coli strains with one amino-acid change in an essential protein, pooled on minimal glucose agar with carbenicillin or gentamicin at twice the control MIC (plus kanamycin and chloramphenicol for the plasmids), 48 h. Fold change of barcode share against drug-free plates; higher = less susceptible. Active = above 20 in both replicates (the paper's putatively resistant). '<' = one read or none on drug, '>' = one read or none on a drug-free plate. Shares are relative, so most strains fall below 1 when a few take over. Listed are strains with at least 15 reads on both drug-free plates, and hits; most hits rest on fewer reference reads. Replicate rank correlation about 0.5. Edits are read from barcodes.

target: Escherichia coli (laboratory strain); assay: barcode share on antibiotic plates over drug-free plates; higher = less susceptible; details: antibiotic: gentamicin; 2× MIC (MIC 0.45 µg/mL)
Method: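 A pool of E. coli strains, each edited to carry one amino-acid change in an essential protein, was grown for 48 h on minimal glucose agar with or without antibiotic; strain barcodes were sequenced; mean of two replicates.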

| Protein | fold change of barcode share |
| --- | --- |
| cysB V240P (protein) MKLQQLRYIVEVVNHNLNVSSTAEGLYTSQPGISKQVRMLEDELGIQIFSRSGKHLTQVTPAGQEIIRIAREVLSKVDAIKSVAGEHTWPDKGSLYIATTHTQARYALPNVIKGFIERYPRVSLHMHQGSPTQIADAVSKGNADFAIATEALHLYEDLVMLPCYHWNRAIVVTPDHPLAGKKAITIEELAQYPLVTYTFGFTGRSELDTAFNRAGLTPRIVFTATDADVIKTYVRLGLGPGVIASMAVDPVADPDLVRVDAHDIFSHSTTKIGFRRSTFLRSYMYDFIQRFAPHLTRDVVDAAVALRSNEEIEVMFKDIKLPEK | < 0.00869 |
| cysB F316A (protein) MKLQQLRYIVEVVNHNLNVSSTAEGLYTSQPGISKQVRMLEDELGIQIFSRSGKHLTQVTPAGQEIIRIAREVLSKVDAIKSVAGEHTWPDKGSLYIATTHTQARYALPNVIKGFIERYPRVSLHMHQGSPTQIADAVSKGNADFAIATEALHLYEDLVMLPCYHWNRAIVVTPDHPLAGKKAITIEELAQYPLVTYTFGFTGRSELDTAFNRAGLTPRIVFTATDADVIKTYVRLGLGVGVIASMAVDPVADPDLVRVDAHDIFSHSTTKIGFRRSTFLRSYMYDFIQRFAPHLTRDVVDAAVALRSNEEIEVMAKDIKLPEK | < 0.0172 |
| cysC V29Q (protein) MALHDENVVWHSHPVTVQQRELHHGHRGQVLWFTGLSGSGKSTVAGALEEALHKLGVSTYLLDGDNVRHGLCSDLGFSDADRKENIRRVGEVANLMVEAGLVVLTAFISPHRAERQMVRERVGEGRFIEVFVDTPLAICEARDPKGLYKKARAGELRNFTGIDSVYEAPESAEIHLNGEQLVTNLVQQLLDLLRQNDIIRS | < 0.0173 |
| cysC V30D (protein) MALHDENVVWHSHPVTVQQRELHHGHRGVDLWFTGLSGSGKSTVAGALEEALHKLGVSTYLLDGDNVRHGLCSDLGFSDADRKENIRRVGEVANLMVEAGLVVLTAFISPHRAERQMVRERVGEGRFIEVFVDTPLAICEARDPKGLYKKARAGELRNFTGIDSVYEAPESAEIHLNGEQLVTNLVQQLLDLLRQNDIIRS | 0.0301 ± 0.028 |
| cysC L31W (protein) MALHDENVVWHSHPVTVQQRELHHGHRGVVWWFTGLSGSGKSTVAGALEEALHKLGVSTYLLDGDNVRHGLCSDLGFSDADRKENIRRVGEVANLMVEAGLVVLTAFISPHRAERQMVRERVGEGRFIEVFVDTPLAICEARDPKGLYKKARAGELRNFTGIDSVYEAPESAEIHLNGEQLVTNLVQQLLDLLRQNDIIRS | 0.0876 ± 0.087 |
| cysC F33Q (protein) MALHDENVVWHSHPVTVQQRELHHGHRGVVLWQTGLSGSGKSTVAGALEEALHKLGVSTYLLDGDNVRHGLCSDLGFSDADRKENIRRVGEVANLMVEAGLVVLTAFISPHRAERQMVRERVGEGRFIEVFVDTPLAICEARDPKGLYKKARAGELRNFTGIDSVYEAPESAEIHLNGEQLVTNLVQQLLDLLRQNDIIRS | 0.0467 ± 0.031 |
| cysC V102Q (protein) MALHDENVVWHSHPVTVQQRELHHGHRGVVLWFTGLSGSGKSTVAGALEEALHKLGVSTYLLDGDNVRHGLCSDLGFSDADRKENIRRVGEVANLMVEAGLQVLTAFISPHRAERQMVRERVGEGRFIEVFVDTPLAICEARDPKGLYKKARAGELRNFTGIDSVYEAPESAEIHLNGEQLVTNLVQQLLDLLRQNDIIRS | < 0.0167 |
| cysC V103A (protein) MALHDENVVWHSHPVTVQQRELHHGHRGVVLWFTGLSGSGKSTVAGALEEALHKLGVSTYLLDGDNVRHGLCSDLGFSDADRKENIRRVGEVANLMVEAGLVALTAFISPHRAERQMVRERVGEGRFIEVFVDTPLAICEARDPKGLYKKARAGELRNFTGIDSVYEAPESAEIHLNGEQLVTNLVQQLLDLLRQNDIIRS | < 0.0146 |
| cysC V103D (protein) MALHDENVVWHSHPVTVQQRELHHGHRGVVLWFTGLSGSGKSTVAGALEEALHKLGVSTYLLDGDNVRHGLCSDLGFSDADRKENIRRVGEVANLMVEAGLVDLTAFISPHRAERQMVRERVGEGRFIEVFVDTPLAICEARDPKGLYKKARAGELRNFTGIDSVYEAPESAEIHLNGEQLVTNLVQQLLDLLRQNDIIRS | < 0.016 |
| cysD I268Q (protein) MDQIRLTHLRQLEAESIHIIREVAAEFSNPVMLYSIGKDSSVMLHLARKAFYPGTLPFPLLHVDTGWKFREMYEFRDRTAKAYGCELLVHKNPEGVAMGINPFVHGSAKHTDIMKTEGLKQALNKYGFDAAFGGARRDEEKSRAKERIYSFRDRFHRWDPKNQRPELWHNYNGQINKGESIRVFPLSNWTEQDIWQYIWLENIDIVPLYLAAERPVLERDGMLMMIDDNRIDLQPGEVIKKRMVRFRTLGCWPLTGAVESNAQTLPEQIEEMLVSTTSERQGRVIDRDQAGSMELKKRQGYF | > 55.8 [active] |
